# The other results are listed elsewhere or left out.
# B1: DC-ASGPR-short (Homo sapiens) (protein)
# chain: MTRTYENFQYLENKVKVQGFKNGPLPLQSLLQRLRSGPCHLLLSLGLGLLLLVIICVVGFQNSKFQRDLVTLRTDFSNFTSNTVAEIQALTSQGSSLEETIASLKAEVEGFKQERQAVHSEMLLRVQQLVQDLKKLTCQVATLNNNASTEGTCCPVNWVEHQDSCYWFSHSGMSWAEAEKYCQLKNAHLVVINSREEQNFVQKYLGSAYTWMGLSDPEGAWKWVDGTDYATGFQNWKPGQPDDWQGHGLGGGEDCAHFHPDGRWNDDVCQRPYHWVCEAGLGQTSQESH
# Legend:
# Experiment in all cases: glycan array binding signal (z-score within array); higher = stronger binding
# Settings in all cases: glycan notation: IUPAC condensed, linker removed
# [1] = target: Neu5Ac(a2-3)Gal(b1-3)GlcNAc
# Procedure, shortened: (§1)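 Columns mapping to the same glycan were averaged after glycan names were converted to IUPAC-condensed notation. The data come from 3228 arrays in the Consortium for Functional Glycomics database, limited to those with an available protein sequence. Binding is reported as a within-array Z-score averaged across arrays of one protein sequence and across linkers.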
# [2] = target: Neu5Ac(a2-3)Gal(b1-3)GlcNAc(b1-2)Man
# Procedure, shortened: as §1
# [3] = target: Neu5Ac(a2-3)Gal(b1-3)GlcNAc(b1-2)Man(a1-3)[GlcNAc(b1-4)][Neu5Ac(a2-3)Gal(b1-3)GlcNAc(b1-2)Man(a1-6)]Man(b1-4)GlcNAc(b1-4)GlcNAc
# Procedure, shortened: as §1
# [4] = target: Neu5Ac(a2-3)Gal(b1-3)GlcNAc(b1-2)Man(a1-3)[Neu5Ac(a2-3)Gal(b1-3)GlcNAc(b1-2)Man(a1-6)]Man(b1-4)GlcNAc(b1-4)GlcNAc
# Procedure, shortened: as §1
# [5] = target: Neu5Ac(a2-3)Gal(b1-3)GlcNAc(b1-2)[Neu5Ac(a2-3)Gal(b1-3)GlcNAc(b1-4)]Man(a1-6)[Neu5Ac(a2-3)Gal(b1-3)GlcNAc(b1-2)Man(a1-3)]Man(b1-4)GlcNAc(b1-4)GlcNAc
# Procedure, shortened: as §1
# [6] = target: Neu5Ac(a2-3)Gal(b1-3)GlcNAc(b1-3)Gal(b1-3)GlcNAc
# Procedure, shortened: as §1
# [7] = target: Neu5Ac(a2-3)Gal(b1-3)GlcNAc(b1-3)Gal(b1-4)GlcNAc
# Procedure, shortened: as §1
# [8] = target: Neu5Ac(a2-3)Gal(b1-3)GlcNAc(b1-3)GalNAc
# Procedure, shortened: as §1
# [9] = target: Neu5Ac(a2-3)Gal(b1-3)GlcNAc(b1-6)GalNAc
# Procedure, shortened: as §1
# [10] = target: Neu5Ac(a2-3)Gal(b1-3)GlcNAc6S
# Procedure, shortened: as §1
# [11] = target: Neu5Ac(a2-3)Gal(b1-3)[Fuc(a1-4)]GlcNAc
# Procedure, shortened: as §1
# [12] = target: Neu5Ac(a2-3)Gal(b1-3)[Fuc(a1-4)]GlcNAc(b1-3)Gal(b1-3)[Fuc(a1-4)]GlcNAc
# Procedure, shortened: as §1
# [13] = target: Neu5Ac(a2-3)Gal(b1-3)[Fuc(a1-4)]GlcNAc(b1-3)Gal(b1-4)[Fuc(a1-3)]GlcNAc
# Procedure, shortened: as §1
# [14] = target: Neu5Ac(a2-3)Gal(b1-3)[GlcNAc(b1-6)]GalNAc
# Procedure, shortened: as §1
# [15] = target: Neu5Ac(a2-3)Gal(b1-3)[Neu5Ac(a2-6)]GalNAc
# Procedure, shortened: as §1
# [16] = target: Neu5Ac(a2-3)Gal(b1-3)[Neu5Ac(a2-6)]GlcNAc(b1-3)[Fuc(a1-3)[Gal(b1-4)]GlcNAc(b1-6)]Gal(b1-4)Glc
# Procedure, shortened: as §1
# [17] = target: Neu5Ac(a2-3)Gal(b1-3)]Neu5Ac(a2-3)Gal(b1-4)]GlcNAc
# Procedure, shortened: as §1
# [18] = target: Neu5Ac(a2-3)Gal(b1-4)Glc
# Procedure, shortened: as §1
# [19] = target: Neu5Ac(a2-3)Gal(b1-4)GlcNAc
# Procedure, shortened: as §1
# [20] = target: Neu5Ac(a2-3)Gal(b1-4)GlcNAc(b1-2)Man
# Procedure, shortened: as §1
# [21] = target: Neu5Ac(a2-3)Gal(b1-4)GlcNAc(b1-2)Man(a1-3)[GlcNAc(b1-4)][Neu5Ac(a2-3)Gal(b1-4)GlcNAc(b1-2)Man(a1-6)]Man(b1-4)GlcNAc(b1-4)GlcNAc
# Procedure, shortened: as §1
# [22] = target: Neu5Ac(a2-3)Gal(b1-4)GlcNAc(b1-2)Man(a1-3)[Neu5Ac(a2-3)Gal(b1-4)GlcNAc(b1-2)Man(a1-6)]Man(b1-4)GlcNAc(b1-4)GlcNAc
# Procedure, shortened: as §1
# [23] = target: Neu5Ac(a2-3)Gal(b1-4)GlcNAc(b1-2)Man(a1-3)[Neu5Ac(a2-3)Gal(b1-4)GlcNAc(b1-2)Man(a1-6)]Man(b1-4)GlcNAc(b1-4)[Fuc(a1-6)]GlcNAc
# Procedure, shortened: as §1
# [24] = target: Neu5Ac(a2-3)Gal(b1-4)GlcNAc(b1-2)Man(a1-3)[Neu5Ac(a2-6)Gal(b1-4)GlcNAc(b1-2)Man(a1-6)]Man(b1-4)GlcNAc(b1-4)GlcNAc
# Procedure, shortened: as §1
# [25] = target: Neu5Ac(a2-3)Gal(b1-4)GlcNAc(b1-2)[Neu5Ac(a2-3)Gal(b1-4)GlcNAc(b1-4)]Man(a1-3)[GlcNAc(b1-4)][Neu5Ac(a2-3)Gal(b1-4)GlcNAc(b1-2)[Neu5Ac(a2-3)Gal(b1-4)GlcNAc(b1-6)]Man(a1-6)]Man(b1-4)GlcNAc(b1-4)GlcNAc
# Procedure, shortened: as §1
# [26] = target: Neu5Ac(a2-3)Gal(b1-4)GlcNAc(b1-2)[Neu5Ac(a2-3)Gal(b1-4)GlcNAc(b1-4)]Man(a1-3)[GlcNAc(b1-4)][Neu5Ac(a2-3)Gal(b1-4)GlcNAc(b1-4)Man(a1-6)]Man(b1-4)GlcNAc(b1-4)GlcNAc
# Procedure, shortened: as §1
# [27] = target: Neu5Ac(a2-3)Gal(b1-4)GlcNAc(b1-2)[Neu5Ac(a2-3)Gal(b1-4)GlcNAc(b1-6)]Man(a1-6)[Neu5Ac(a2-3)Gal(b1-4)GlcNAc(b1-2)Man(a1-3)][GlcNAc(b1-4)]Man(b1-4)GlcNAc(b1-4)GlcNAc
# Procedure, shortened: as §1
# [28] = target: Neu5Ac(a2-3)Gal(b1-4)GlcNAc(b1-3)Gal
# Procedure, shortened: as §1
# [29] = target: Neu5Ac(a2-3)Gal(b1-4)GlcNAc(b1-3)Gal(b1-3)GlcNAc
# Procedure, shortened: as §1
# [30] = target: Neu5Ac(a2-3)Gal(b1-4)GlcNAc(b1-3)Gal(b1-4)GlcNAc
# Procedure, shortened: as §1
# [31] = target: Neu5Ac(a2-3)Gal(b1-4)GlcNAc(b1-3)Gal(b1-4)GlcNAc(b1-2)Man(a1-3)[Neu5Ac(a2-3)Gal(b1-4)GlcNAc(b1-3)Gal(b1-4)GlcNAc(b1-2)Man(a1-6)]Man(b1-4)GlcNAc(b1-4)GlcNAc
# Procedure, shortened: as §1
# [32] = target: Neu5Ac(a2-3)Gal(b1-4)GlcNAc(b1-3)Gal(b1-4)GlcNAc(b1-3)Gal(b1-4)GlcNAc
# Procedure, shortened: as §1
# [33] = target: Neu5Ac(a2-3)Gal(b1-4)GlcNAc(b1-3)Gal(b1-4)GlcNAc(b1-3)Gal(b1-4)GlcNAc(b1-2)Man(a1-3)[Neu5Ac(a2-3)Gal(b1-4)GlcNAc(b1-3)Gal(b1-4)GlcNAc(b1-3)Gal(b1-4)GlcNAc(b1-2)Man(a1-6)]GalNAc
# Procedure, shortened: as §1
# [34] = target: Neu5Ac(a2-3)Gal(b1-4)GlcNAc(b1-3)Gal(b1-4)GlcNAc(b1-3)GalNAc
# Procedure, shortened: as §1
# [35] = target: Neu5Ac(a2-3)Gal(b1-4)GlcNAc(b1-3)Gal(b1-4)GlcNAc(b1-3)[Neu5Ac(a2-3)Gal(b1-4)GlcNAc(b1-3)Gal(b1-4)GlcNAc(b1-6)]GalNAc
# Procedure, shortened: as §1
# [36] = target: Neu5Ac(a2-3)Gal(b1-4)GlcNAc(b1-3)Gal(b1-4)GlcNAc(b1-6)[Gal(b1-3)]GalNAc
# Procedure, shortened: as §1
# [37] = target: Neu5Ac(a2-3)Gal(b1-4)GlcNAc(b1-3)Gal(b1-4)[Fuc(a1-3)]GlcNAc
# Procedure, shortened: as §1
# [38] = target: Neu5Ac(a2-3)Gal(b1-4)GlcNAc(b1-3)GalNAc
# Procedure, shortened: as §1
binder,measurement,setting,value
B1,glycan array binding signal (z-score),[1],-0.279
same,glycan array binding signal (z-score),[2],-0.272
same,glycan array binding signal (z-score),[3],-0.262
same,glycan array binding signal (z-score),[4],-0.264
same,glycan array binding signal (z-score),[5],-0.221
same,glycan array binding signal (z-score),[6],-0.289
same,glycan array binding signal (z-score),[7],-0.286
same,glycan array binding signal (z-score),[8],-0.276
same,glycan array binding signal (z-score),[9],5.92
same,glycan array binding signal (z-score),[10],-0.065
same,glycan array binding signal (z-score),[11],-0.258
same,glycan array binding signal (z-score),[12],-0.215
same,glycan array binding signal (z-score),[13],-0.124
same,glycan array binding signal (z-score),[14],-0.964
same,glycan array binding signal (z-score),[15],-0.224
same,glycan array binding signal (z-score),[16],-0.26
same,glycan array binding signal (z-score),[17],-0.178
same,glycan array binding signal (z-score),[18],-0.261
same,glycan array binding signal (z-score),[19],-0.281
same,glycan array binding signal (z-score),[20],-0.027
same,glycan array binding signal (z-score),[21],-0.272
same,glycan array binding signal (z-score),[22],-0.286
same,glycan array binding signal (z-score),[23],-0.277
same,glycan array binding signal (z-score),[24],-0.292
same,glycan array binding signal (z-score),[25],-0.271
same,glycan array binding signal (z-score),[26],-0.276
same,glycan array binding signal (z-score),[27],-0.281
same,glycan array binding signal (z-score),[28],-0.326
same,glycan array binding signal (z-score),[29],-0.282
same,glycan array binding signal (z-score),[30],-0.282
same,glycan array binding signal (z-score),[31],-0.571
same,glycan array binding signal (z-score),[32],-0.283
same,glycan array binding signal (z-score),[33],0.068
same,glycan array binding signal (z-score),[34],-0.238
same,glycan array binding signal (z-score),[35],-0.3
same,glycan array binding signal (z-score),[36],-0.398
same,glycan array binding signal (z-score),[37],-0.265
same,glycan array binding signal (z-score),[38],-0.051

# Reference: the supplement of paper PMC8728848
